The other results are listed elsewhere or left out.
test system: PfSIP2 AP2 domain 1 (GST-tagged); test: gcPBM binding intensity (ln(normalized median fluorescence intensity)); higher = stronger DNA binding
Procedure, shortened: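 For binding intensity, the highest Masliner-normalised natural-log median intensity across replicate spots of either probe orientation was taken. Protein bound to the array was stained with Alexa488 anti-GST antibody and scanned at 488 nm. The protein, GST-tagged P. falciparum DNA-binding domains from E. coli at about 25 μg on average, had been applied for 1 h to an Agilent 4 × 180k array of primer-extended double-stranded 36-bp intergenic genomic probes and negative controls.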

Sequence	gcPBM binding intensity (ln)
TATGTAAAGAGTAAGGGTACATGTATAATACGGCTC [XGTACX_site1283]	7.18
AAATACTATATCAAGCGTACTTATTTCATGGTAATA [XGTACX_site7878]	6.83
TTTAAAATATTTTCTTGTACGAAGGAACATTTCTTA [XGTACX_site4013]	6.79
TTTATATATATATATATATATAATAAATGATACACA [TGCATGCA_negctrl_site392]	7.4
TATTTTTTTTCTTATACACACCATGCATCAAACTAA [CACACA_site5208]	7.46
TCAAAAATATTCTGGAGTACCTTTTTAAAGGTATAG [XGTACX_site6893]	6.88
TTTGCACCGTTTAAGTGTACAGAATTATGACATATA [XGTACX_site6735]	11.2
TGTGGTTACATGTGCACACACTTATTTCGTTCTTAT [CACACA_site4907]	8.54
TAAATATATATATACACACACATACACAAAAAAAAA [CACACA_site3580]	7.25
ATTGCATATAATGGCACACATAAATCCATAATATAT [CACACA_site297]	7.02
TAATCGAAACAAAGAACATGCAAACATATACCTATA [TGCATGCA_site894]	6.72
CAAAATTTATGTAAAAGTACAAAAATATAGAAAGAT [XGTACX_site1122]	7.31
TGTGTTCATCTATGCACACGCATATATATTATTGTT [CACACA_site5985]	7.01
TTTTATTCCTTCTTTGCACACGTTTAAAAATATATA [CACACA_site2899]	8.04
AATATAATATAAGGATCACACACAAACACCCATATA [CACACA_site8084]	7.11
TAAGTTATATGTATATGTACTTATATATATATATAT [XGTACX_site5402]	9.57
ATTAAAAAAATTAAAAGTACACATATTTCAATGATA [XGTACX_site5606]	6.84
TAAAAAAAAAAAAAAACACACATATAAATATATATA [CACACA_site1243]	7.19
AAAATTAAAAAGAACACACAAATATATCTATAATAA [CACACA_site7660]	6.9
TTAATAAATAAAAATGCACACAGTTAACATGTTGAA [CACACA_site1200]	7.49
GCACATAAATATATGACACACACACCGATTATATAT [CACACA_site9003]	7.07
AAAAAAAAAAAAAAAACACACAAACATCAAATTATT [CACACA_site5083]	7.73
ATAATAATTTAATACATACACACGTATATCTTTTTT [CACACA_site2041]	7.05

Sequence	gcPBM binding intensity (ln)
ATACAAAAAGTAAAAAGTACTTAACTAAATATATAA [XGTACX_site2335]	6.96
TTTTCAATATATTAATGTACGAATACGCAAATAAGA [XGTACX_site1613]	7.23
TTTTTTTTTTTTTTTGCACACACATAATAGGTACAA [CACACA_site3578]	7.5
GCAGGATTGGTTCAAACACACATATTATATGACTAT [CACACA_site660]	7.01
ATCTTATATGATCACACACACACGCACAAAACAGAA [CACACA_site4913]	7.56
AAAAAAAAAAAATGCACACATATATTTCCATATACA [CACACA_site1471]	7.54
TTTAAAATACAGAAGGTGCATTTAACATATTTGTAT	10.6
TATATATATAAACACACACACATATATATATATATA [CACACA_site4584]	9.48
ATATATATATATATATGTACTAATTAATATTTCGAG [XGTACX_site580]	9.58
ACAAAATTTACAAAATGTACAAAATTTACAAAGTAT [XGTACX_site6463]	6.8
GTATATCATATTTCATGTACACAAAAAAATAAAAAT [XGTACX_site704]	7.3
TATATATATTATATATGTACATATTATATATATATA [XGTACX_site7300]	8.97
ATATATTTGATAAGAGTGCACAAATACATACATACA [GTGCAC_site9704]	10.6
ATAATACTACCTACATGTACTTATATATAAATGAAT [XGTACX_site3417]	7.39
GTTTTAACAAAATTAGTGCATTTATCAATTATATAA	8.58
TTTTTTTTTTCAATGGCACACATTTTAGATTTATGC [CACACA_site1074]	6.87
ACATCAAGCGGACACACACACACACCGACAGACACA [CACACA_site4361]	7.39
AAAGAATCAAGAATAGTGCAAATATGTATAACCTTT	8.08
ATAAAATAATGAAAAACACACATTTTTATTTGTATA [CACACA_site3369]	6.77
ATATATATATATGAATCACACACAAAAAATATAGAG [CACACA_site9298]	9.33
AATAACATGTTATATACACACATTATGAAGTCTTCA [CACACA_site746]	6.74
ATTGTTTTTTTTTCTTTGTGGAATGAATGAATATAT [XGTACX_negctrl_site603]	7.3
AAGATTATAAATATATGTACATAAATATATTATATA [XGTACX_site8056]	7.01

Sequence	gcPBM binding intensity (ln)
AATATAAATAATATATGTACATATATATATATATAT [XGTACX_site1021]	9.01
AAAGTATTCTTTACACGTACATATATATAAATATAA [XGTACX_site7557]	7.12
AGAATTGTTGTTAAAGAATTCTTTTTTATCCTTCCC [CACACA_negctrl_site1820]	6.89
TTTGTATATATTAATGTACACACATGCGTATGTTCG [CACACA_site9193]	6.94
AATATAGATATAAAAAGTACATTATATATATATATA [XGTACX_site6899]	9.34
TATACATACCATAATGCATGTAAGAACAAATAACTG [TGCATGCA_site264]	7.08
ATGACTCTCAAGTTTGCACACATTTATATTTTTTAA [CACACA_site2605]	7.35
TATGTATATATATATATATATATATATATATATATA [TGCATGCA_negctrl_site491]	8.85
ATGGCCACTGTGAAATGTACAAAAAAAAAATACAAT [XGTACX_site2874]	6.84
CATACAAATTAATATGTACACACAAATATATATATA [CACACA_site8605]	9.21
AGTAGTCTGGAGAAAAGTACATAGTATCTGGTAACC [XGTACX_site2024]	6.95
TTTTTTTTTTTTTTTTGTACATATTTTAATTTGTTT [XGTACX_site6297]	6.95
TTCCAAAATTGCACATGTACAAAATTCTCCAATATG [XGTACX_site3419]	7.16
TTTATATTATTTAATGAGAAATAATTATAAACAATT [TGCATGCA_negctrl_site65]	6.8
AAAAAAAAAAAATAATGTACATATGTATTTGAGAAA [XGTACX_site3572]	6.88
TTGCCCATTTAATTAACACACAAATATTTATATTCT [CACACA_site738]	7.37
GTTAAATAATATATATGTACATACATAAGTGTTACT [XGTACX_site4778]	7.16
ATTTCCTTTTGTTTCAGTACATAATTTTTTTTTTTT [XGTACX_site4842]	7.08
GATATTCATAGAAACACACATACAAATTATGTATAT [CACACA_site144]	6.92
TAATTGTACGCCAATACACACAGAATTAAAATGTAG [CACACA_site4234]	7.14
TTTTTAAAGTTTTATACACACACCAAAATTATTCTA [CACACA_site600]	7
TATGTGCACCCATGTACATGCGGACATATGTTATAT [TGCATGCA_site383]	12
ATATATTATATATATTGTACATGTAAAATTTTAAAA [XGTACX_site7197]	7.3

Sequence	gcPBM binding intensity (ln)
AAAAATTTGGCATACACACACACACCCACACCCACA [CACACA_site587]	7.07
TATGTATTTAAATTAACACACATATGTGGTTAATAG [CACACA_site5697]	6.82
ACATATATATATATATATATATATATATCATTATGT [CACACA_negctrl_site724]	7.9
ACTCTTGATCTGAATGCACACAATAAATTATATAAA [CACACA_site1438]	7.81
AGTATAATAATATTTACACACGCATATGTTATATAT [CACACA_site1476]	6.99
TCTAAAAATAAGAACACACACATATAAGCATATAAA [CACACA_site2274]	6.84
AAAACGCTACATAATTGTACATGTAGAAATAAAAGC [XGTACX_site2895]	7.4
TACTGCCTTCCATACCCACACACTTCCCATATATTT [CACACA_site2705]	7.58
ATTTAAAAAAAAAAAACACACATGTGAATAGAAAAG [CACACA_site3323]	7.06
ATATTTAAATAATATTCACACACAAAATTATATTTT [CACACA_site7955]	6.94
CATATAAAAATATATGCACACAAATAAAAAATTATA [CACACA_site9210]	7.29
ATTTCTCAATCGTAATGTACAAAAAAAAGGGAAAAG [XGTACX_site2781]	7.17
ACAAACAAAGAAAGAACACACATACACAATATACCT [CACACA_site5566]	6.95
ATAAATATAATAATCATACACACCAAAGAGAATATT [CACACA_site1888]	6.98
AAAGTTATTATGCAATAATTATGATAATTAATATAT [TGCATGCA_negctrl_site316]	7.04
ATGACTTACATATATAGTACTTTGTTTTGGAGTTGC [XGTACX_site94]	7.01
TATGAGGAAACGTGGTGTACTTTTTTTTAATAAAAA [XGTACX_site1351]	7.16
AAAAAAAAAAAGTTTACACACATTAATTTTACATAT [CACACA_site834]	6.91
AAAAAAATACCATTCACACATATTCTTTTATTATTT [CACACA_site5113]	6.95
ATTAAAAAGACAAAAAAAAAATTTTTTTTTTTTTTT [CACACA_negctrl_site1027]	6.99
